These results are taken from the BET-seq Pho4 binding data (Le et al. 2018).

The list shows a part of the results. The energies were worked out here from pooled read counts, against the library average; single values are noisy.

This assay deals with T1, Pho4 (S. cerevisiae) (UniProt P07270).
T1 sequence: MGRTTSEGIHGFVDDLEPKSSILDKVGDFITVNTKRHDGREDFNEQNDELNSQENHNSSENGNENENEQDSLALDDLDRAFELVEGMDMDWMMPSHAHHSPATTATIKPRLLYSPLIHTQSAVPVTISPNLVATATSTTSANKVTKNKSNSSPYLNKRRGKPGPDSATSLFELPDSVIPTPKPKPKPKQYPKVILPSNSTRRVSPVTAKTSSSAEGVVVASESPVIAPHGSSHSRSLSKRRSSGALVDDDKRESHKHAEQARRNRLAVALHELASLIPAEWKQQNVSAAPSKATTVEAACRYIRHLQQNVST
The assay is described as follows: relative binding free energy (BET-seq); higher = weaker binding. The following applies: reference: library average.
Consider GGTCTCACGTGTTGCT, for which the “relative binding free energy” value was determined as 0.34 kcal/mol.
Under ATAGTCACGTGTTCGG stands 0.02 kcal/mol.
With GATATCACGTGTTGGG, the “relative binding free energy” value was found to be 0.3 kcal/mol.
As for AGTCACACGTGATGTG, the “relative binding free energy” value was determined as 0.13 kcal/mol.
On to CTTGTCACGTGTACTT, for which the “relative binding free energy” value was 0.2 kcal/mol.
Under GGGTTCACGTGTCTGT stands 0.35 kcal/mol; under TTGGGCACGTGTAAGC, 0.03 kcal/mol.
Turning to GGGGGCACGTGGCGAA, the “relative binding free energy” value is -0.21 kcal/mol.
On to AGCGACACGTGGGGTA, for which the “relative binding free energy” value was -0.07 kcal/mol.
To AGATTCACGTGGGGTG belongs 0.19 kcal/mol.
In the case of TTACGCACGTGTAATT, the “relative binding free energy” value was 0.12 kcal/mol.
For TTTCACACGTGTGGTG, the “relative binding free energy” value was determined as 0.07 kcal/mol.
Under AGTTTCACGTGATGCG stands 0.36 kcal/mol; under GGTCGCACGTGTAGTT, 0.09 kcal/mol; under TACAGCACGTGGAGTG, -0.06 kcal/mol.
Under CTTGGCACGTGCGAGG stands -0.17 kcal/mol; under TTAGTCACGTGGCGTA, -0.07 kcal/mol; under TATGGCACGTGCCTGT, -0.21 kcal/mol.
Under TATGCCACGTGCTTTT stands 0.01 kcal/mol.
With GTGATCACGTGTAAAG, the “relative binding free energy” value was 0.23 kcal/mol.
In the case of AGTAACACGTGGGTAA, the “relative binding free energy” value was -0.09 kcal/mol.
In the case of TTGAGCACGTGGATTT, the “relative binding free energy” value was found to be 0.04 kcal/mol.
To ATATACACGTGTGGGT belongs 0.04 kcal/mol; to TTATACACGTGCATTT, 0.08 kcal/mol.
On to GAGGTCACGTGTGGTG, for which the “relative binding free energy” value was found to be 0.17 kcal/mol.
For GAGTGCACGTGGGTAT, the “relative binding free energy” value was -0.2 kcal/mol.
To TGTGTCACGTGAGCGA belongs 0.31 kcal/mol; to TTTAACACGTGTATGT, -0.05 kcal/mol.
To TTGTTCACGTGATGCG belongs 0.33 kcal/mol; to CCGGTCACGTGGGGCT, -0.06 kcal/mol.
Take GCAGTCACGTGGTGGG: the “relative binding free energy” value stood at 0.03 kcal/mol.
Turning to GTTAGCACGTGATCGA, the “relative binding free energy” value was 0.12 kcal/mol.
TGTCGCACGTGTTCGG: the “relative binding free energy” value was found to be 0.06 kcal/mol.
To TCTGTCACGTGCTTTT belongs 0.18 kcal/mol.
To TCTTGCACGTGTTGTC belongs -0.02 kcal/mol.
For the sequence TGATCCACGTGAGGGG, the “relative binding free energy” value is 0.14 kcal/mol.
Under ACTTGCACGTGTGATG stands 0.14 kcal/mol.
Regarding TGCATCACGTGTAGCT, the “relative binding free energy” value amounted to 0.26 kcal/mol.
Under ATCGTCACGTGCTGTT stands -0.01 kcal/mol; under GCATTCACGTGTAGGT, 0.16 kcal/mol.
To GCTAACACGTGTTGTT belongs 0.09 kcal/mol; to CGACTCACGTGTGGTG, 0.13 kcal/mol; to CGTGCCACGTGTTGTT, -0.14 kcal/mol.
On to TGATGCACGTGTACGA, for which the “relative binding free energy” value stood at 0 kcal/mol.
For TAGTGCACGTGAGGAT, the “relative binding free energy” value turned out to be 0.14 kcal/mol.
Under GTAGTCACGTGGCTCG stands 0.07 kcal/mol.
With ACGGTCACGTGGGGCT, the “relative binding free energy” value is -0.04 kcal/mol.
Take GATGTCACGTGCAAGT: the “relative binding free energy” value was determined as 0.18 kcal/mol.
To TTTGGCACGTGCGAGA belongs -0.1 kcal/mol; to TAGGACACGTGTTGGA, 0.18 kcal/mol; to ATGTGCACGTGCTAGA, -0.14 kcal/mol.
Consider GAGTTCACGTGTGTCA, for which the “relative binding free energy” value is 0.29 kcal/mol.
To CGGAGCACGTGGTGTT belongs -0.3 kcal/mol; to TGTGTCACGTGGGGAA, -0.06 kcal/mol.
Regarding ATGATCACGTGATGGA, the “relative binding free energy” value came out at 0.1 kcal/mol.
Under TGAGGCACGTGAAAAT stands 0.23 kcal/mol; under AGGGTCACGTGAGTCG, 0.24 kcal/mol; under CGGATCACGTGGGGTT, -0.05 kcal/mol.
As to ACGTGCACGTGGAGCG, the “relative binding free energy” value was -0.07 kcal/mol.
As for TGCTGCACGTGGGAGA, the “relative binding free energy” value is -0.12 kcal/mol.
With TGGGGCACGTGACAGT, the “relative binding free energy” value worked out at 0 kcal/mol.
To ATGTACACGTGGTTTC belongs 0.06 kcal/mol.
With GGAGTCACGTGGGAGC, the “relative binding free energy” value turned out to be 0.1 kcal/mol.
To ACTAGCACGTGTTCGG belongs 0.13 kcal/mol; to GAAGTCACGTGATTGA, 0.32 kcal/mol.
To GGAAGCACGTGAAGGA belongs 0.19 kcal/mol; to TTTCGCACGTGGGGTT, -0.13 kcal/mol; to AGGGGCACGTGGTAGA, -0.18 kcal/mol.
Under CTAATCACGTGGGGGG stands 0.03 kcal/mol; under GGTATCACGTGAAATG, 0.36 kcal/mol; under TGTCTCACGTGGAAAG, 0.38 kcal/mol.
Take ATAGACACGTGTTTGC: the “relative binding free energy” value amounted to 0.1 kcal/mol.
To AATTTCACGTGATACG belongs 0.42 kcal/mol; to CGTTACACGTGATTGG, 0.15 kcal/mol.
Consider GAGAGCACGTGGAGGG, for which the “relative binding free energy” value is -0.16 kcal/mol.
Under GGGCACACGTGGGGCG stands -0.06 kcal/mol; under TTGGTCACGTGCCGTA, 0.02 kcal/mol; under TGTGCCACGTGTGTTA, -0.1 kcal/mol.
Under ATGGACACGTGGGATT stands 0.1 kcal/mol; under TTGTTCACGTGTTTTA, 0.38 kcal/mol.
Take CTGGGCACGTGTCGGA: the “relative binding free energy” value is -0.15 kcal/mol.
Under GTCGACACGTGTGGTT stands 0.12 kcal/mol; under AAAGTCACGTGTTGCG, 0.09 kcal/mol.
Regarding TGGGTCACGTGTGGCT, the “relative binding free energy” value came out at 0.09 kcal/mol.
As to ACGTTCACGTGAGGTA, the “relative binding free energy” value amounted to 0.23 kcal/mol.
Under AAATTCACGTGGGATA stands 0.33 kcal/mol; under ATCGGCACGTGGAGAG, -0.15 kcal/mol.
As for TGGGTCACGTGAGCGG, the “relative binding free energy” value was found to be 0.29 kcal/mol.
Turning to GTCGTCACGTGATTGG, the “relative binding free energy” value stood at 0.32 kcal/mol.
To CTTCTCACGTGTGTTT belongs 0.17 kcal/mol; to GTACTCACGTGAGTGG, 0.23 kcal/mol.
Regarding TTTGTCACGTGGTAGA, the “relative binding free energy” value stood at 0.13 kcal/mol.
For the sequence AGGACCACGTGATGGG, the “relative binding free energy” value was 0.01 kcal/mol.
To TAACTCACGTGTAGGG belongs 0.15 kcal/mol.
For TTCCTCACGTGTTGGT, the “relative binding free energy” value came out at 0.24 kcal/mol.
Consider AATGTCACGTGCGTGG, for which the “relative binding free energy” value was -0.06 kcal/mol.
To TGGAACACGTGGTTTA belongs -0.12 kcal/mol.
To CGTGACACGTGGCGGT belongs -0.25 kcal/mol.
Consider ATTGTCACGTGAGCAT, for which the “relative binding free energy” value amounted to 0.11 kcal/mol.
With GCGGGCACGTGGTGAA, the “relative binding free energy” value was -0.1 kcal/mol.
Under GTCGGCACGTGTGCTA stands 0.15 kcal/mol.
Under GGCTGCACGTGTAGCG stands 0.05 kcal/mol.
For GTAATCACGTGACGTG, the “relative binding free energy” value amounted to 0.3 kcal/mol.
To GTCGCCACGTGTATGG belongs 0.05 kcal/mol; to TTTTACACGTGCTTGG, 0.1 kcal/mol.
As for GGCTCCACGTGTGTGT, the “relative binding free energy” value amounted to 0.01 kcal/mol.
Under TTAATCACGTGGTTAG stands 0.22 kcal/mol; under ACAATCACGTGGGATT, 0.14 kcal/mol; under ATAGTCACGTGGGCAG, -0.18 kcal/mol.
Consider ATTGTCACGTGTAGGA, for which the “relative binding free energy” value is -0.01 kcal/mol.
To GTGTCCACGTGGTTCA belongs 0.12 kcal/mol; to TGCGCCACGTGGGGCT, -0.24 kcal/mol.
Under TGTTTCACGTGTTCGC stands 0.35 kcal/mol.
Consider AGCGGCACGTGGATTG, for which the “relative binding free energy” value was -0.05 kcal/mol.
For the sequence TGGTACACGTGGGTAG, the “relative binding free energy” value was -0.07 kcal/mol.
